Source: paper PMC12820563
The other results are listed elsewhere or left out. The list includes weakly bound sequences.

Biological target: T1, MBP-FoxP3dN (UniProt Q99JB6)
T1 sequence: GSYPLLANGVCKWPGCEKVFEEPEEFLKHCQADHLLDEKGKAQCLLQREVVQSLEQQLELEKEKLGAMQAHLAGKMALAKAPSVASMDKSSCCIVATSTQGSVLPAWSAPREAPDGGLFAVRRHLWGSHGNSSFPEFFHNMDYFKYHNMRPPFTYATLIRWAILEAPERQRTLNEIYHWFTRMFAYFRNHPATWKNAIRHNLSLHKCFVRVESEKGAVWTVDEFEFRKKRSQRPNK
Assay: PD-seq (MBP pull-down with sequencing)
Details: 20 mM Tris-HCl pH 7.5, 100 mM NaCl, 1.5 mM MgCl2, 0.4 uM protein, 0.1 uM dsDNA library, 30 min, room temperature, amylose pull-down; high values mean tight binding; double strand, one strand shown

Sequence	binding signal (RPM ratio (pull-down/input))
GATGATTGTTCTCCCAGCTGATGAATTAAAGTAGTCGAGTAAACAAATTTTCCTAATCTTTCTGTTCAAGCGCCATCTAC	0.35
GATGATTGTTCTCCCAGCTGATGAATTGGTTTGTTCGAGTAAACAAATTTTCCTAATCTTTCTGTTCAAGCGCCATCTAC	5.26
GATGATTGTTCTCCCAGCTGATGAATTTAATGGCTCGAGTAAACAAATTTTCCTAATCTTTCTGTTCAAGCGCCATCTAC	1.03
GATGATTGTTCTCCCAGCTGATGAATTAATGTTTTCGAGTAAACAAATTTTCCTAATCTTTCTGTTCAAGCGCCATCTAC	2.06
GATGATTGTTCTCCCAGCTGATGAATTGAATTCTTCGAGTAAACAAATTTTCCTAATCTTTCTGTTCAAGCGCCATCTAC	0.518
GATGATTGTTCTCCCAGCTGATGAATTTCCTTAATCGAGTAAACAAATTTTCCTAATCTTTCTGTTCAAGCGCCATCTAC	0.196
GATGATTGTTCTCCCAGCTGATGAATTGAGAGCGTCGAGTAAACAAATTTTCCTAATCTTTCTGTTCAAGCGCCATCTAC	0.44
GATGATTGTTCTCCCAGCTGATGAATTTCAGATTTCGAGTAAACAAATTTTCCTAATCTTTCTGTTCAAGCGCCATCTAC	0.296
GATGATTGTTCTCCCAGCTGATGAATTTTTGTTTTCGAGTAAACAAATTTTCCTAATCTTTCTGTTCAAGCGCCATCTAC	2.51
GATGATTGTTCTCCCAGCTGATGAATTTTTAGCATCGAGTAAACAAATTTTCCTAATCTTTCTGTTCAAGCGCCATCTAC	0.918
GATGATTGTTCTCCCAGCTGATGAATTGACCCCCTCGAGTAAACAAATTTTCCTAATCTTTCTGTTCAAGCGCCATCTAC	0.332
GATGATTGTTCTCCCAGCTGATGAATTGCCACCATCGAGTAAACAAATTTTCCTAATCTTTCTGTTCAAGCGCCATCTAC	1.87
GATGATTGTTCTCCCAGCTGATGAATTATGTTGATCGAGTAAACAAATTTTCCTAATCTTTCTGTTCAAGCGCCATCTAC	7.26
GATGATTGTTCTCCCAGCTGATGAATTCCAGCGATCGAGTAAACAAATTTTCCTAATCTTTCTGTTCAAGCGCCATCTAC	0.403
GATGATTGTTCTCCCAGCTGATGAATTTCCCGTCTCGAGTAAACAAATTTTCCTAATCTTTCTGTTCAAGCGCCATCTAC	0.262
GATGATTGTTCTCCCAGCTGATGAATTTGGAAACTCGAGTAAACAAATTTTCCTAATCTTTCTGTTCAAGCGCCATCTAC	0.626
GATGATTGTTCTCCCAGCTGATGAATTAGGACAGTCGAGTAAACAAATTTTCCTAATCTTTCTGTTCAAGCGCCATCTAC	0.408
GATGATTGTTCTCCCAGCTGATGAATTGGTTCAATCGAGTAAACAAATTTTCCTAATCTTTCTGTTCAAGCGCCATCTAC	0.283
GATGATTGTTCTCCCAGCTGATGAATTGTGGTAGTCGAGTAAACAAATTTTCCTAATCTTTCTGTTCAAGCGCCATCTAC	0.843
GATGATTGTTCTCCCAGCTGATGAATTTTGTTATTCGAGTAAACAAATTTTCCTAATCTTTCTGTTCAAGCGCCATCTAC	7.33
GATGATTGTTCTCCCAGCTGATGAATTCATGTCATCGAGTAAACAAATTTTCCTAATCTTTCTGTTCAAGCGCCATCTAC	0.861

Sequence	binding signal (RPM ratio (pull-down/input))
GATGATTGTTCTCCCAGCTGATGAATTCGCCACCTCGAGTAAACAAATTTTCCTAATCTTTCTGTTCAAGCGCCATCTAC	1.41
GATGATTGTTCTCCCAGCTGATGAATTCACTGTGTCGAGTAAACAAATTTTCCTAATCTTTCTGTTCAAGCGCCATCTAC	0.632
GATGATTGTTCTCCCAGCTGATGAATTCTCTTGATCGAGTAAACAAATTTTCCTAATCTTTCTGTTCAAGCGCCATCTAC	0.265
GATGATTGTTCTCCCAGCTGATGAATTCCATTAGTCGAGTAAACAAATTTTCCTAATCTTTCTGTTCAAGCGCCATCTAC	0.595
GATGATTGTTCTCCCAGCTGATGAATTTTACACCTCGAGTAAACAAATTTTCCTAATCTTTCTGTTCAAGCGCCATCTAC	0.337
GATGATTGTTCTCCCAGCTGATGAATTGCTCTTATCGAGTAAACAAATTTTCCTAATCTTTCTGTTCAAGCGCCATCTAC	0.671
GATGATTGTTCTCCCAGCTGATGAATTTTGGCGATCGAGTAAACAAATTTTCCTAATCTTTCTGTTCAAGCGCCATCTAC	0.614
GATGATTGTTCTCCCAGCTGATGAATTTGCAGTCTCGAGTAAACAAATTTTCCTAATCTTTCTGTTCAAGCGCCATCTAC	1.24
GATGATTGTTCTCCCAGCTGATGAATTCCCTCACTCGAGTAAACAAATTTTCCTAATCTTTCTGTTCAAGCGCCATCTAC	0.304
GATGATTGTTCTCCCAGCTGATGAATTTCGTGTATCGAGTAAACAAATTTTCCTAATCTTTCTGTTCAAGCGCCATCTAC	1.91
GATGATTGTTCTCCCAGCTGATGAATTGTCAGATTCGAGTAAACAAATTTTCCTAATCTTTCTGTTCAAGCGCCATCTAC	0.303
GATGATTGTTCTCCCAGCTGATGAATTCCGTTTGTCGAGTAAACAAATTTTCCTAATCTTTCTGTTCAAGCGCCATCTAC	3.25
GATGATTGTTCTCCCAGCTGATGAATTTCGCCGGTCGAGTAAACAAATTTTCCTAATCTTTCTGTTCAAGCGCCATCTAC	0.652
GATGATTGTTCTCCCAGCTGATGAATTCTATACCTCGAGTAAACAAATTTTCCTAATCTTTCTGTTCAAGCGCCATCTAC	0.418
GATGATTGTTCTCCCAGCTGATGAATTTCAAGGATCGAGTAAACAAATTTTCCTAATCTTTCTGTTCAAGCGCCATCTAC	0.181
GATGATTGTTCTCCCAGCTGATGAATTTCGTTACTCGAGTAAACAAATTTTCCTAATCTTTCTGTTCAAGCGCCATCTAC	1.28
GATGATTGTTCTCCCAGCTGATGAATTTATTGAGTCGAGTAAACAAATTTTCCTAATCTTTCTGTTCAAGCGCCATCTAC	1.87
GATGATTGTTCTCCCAGCTGATGAATTGTGTACCTCGAGTAAACAAATTTTCCTAATCTTTCTGTTCAAGCGCCATCTAC	3.41
GATGATTGTTCTCCCAGCTGATGAATTTTCACTGTCGAGTAAACAAATTTTCCTAATCTTTCTGTTCAAGCGCCATCTAC	0.293
GATGATTGTTCTCCCAGCTGATGAATTGTATCGGTCGAGTAAACAAATTTTCCTAATCTTTCTGTTCAAGCGCCATCTAC	0.882
GATGATTGTTCTCCCAGCTGATGAATTGCTGATTTCGAGTAAACAAATTTTCCTAATCTTTCTGTTCAAGCGCCATCTAC	1.13

Sequence	binding signal (RPM ratio (pull-down/input))
GATGATTGTTCTCCCAGCTGATGAATTAATAGAGTCGAGTAAACAAATTTTCCTAATCTTTCTGTTCAAGCGCCATCTAC	0.294
GATGATTGTTCTCCCAGCTGATGAATTGCCGGCATCGAGTAAACAAATTTTCCTAATCTTTCTGTTCAAGCGCCATCTAC	1
GATGATTGTTCTCCCAGCTGATGAATTAGAACGTTCGAGTAAACAAATTTTCCTAATCTTTCTGTTCAAGCGCCATCTAC	0.33
GATGATTGTTCTCCCAGCTGATGAATTGTTGTGGTCGAGTAAACAAATTTTCCTAATCTTTCTGTTCAAGCGCCATCTAC	5.41
GATGATTGTTCTCCCAGCTGATGAATTTATGCAATCGAGTAAACAAATTTTCCTAATCTTTCTGTTCAAGCGCCATCTAC	4.25
GATGATTGTTCTCCCAGCTGATGAATTAAAAGCTTCGAGTAAACAAATTTTCCTAATCTTTCTGTTCAAGCGCCATCTAC	0.348
GATGATTGTTCTCCCAGCTGATGAATTACCTTCGTCGAGTAAACAAATTTTCCTAATCTTTCTGTTCAAGCGCCATCTAC	0.316
GATGATTGTTCTCCCAGCTGATGAATTACTTTACTCGAGTAAACAAATTTTCCTAATCTTTCTGTTCAAGCGCCATCTAC	0.876
GATGATTGTTCTCCCAGCTGATGAATTATTACTGTCGAGTAAACAAATTTTCCTAATCTTTCTGTTCAAGCGCCATCTAC	0.462
GATGATTGTTCTCCCAGCTGATGAATTGGGTCGATCGAGTAAACAAATTTTCCTAATCTTTCTGTTCAAGCGCCATCTAC	0.294
GATGATTGTTCTCCCAGCTGATGAATTACGCGTATCGAGTAAACAAATTTTCCTAATCTTTCTGTTCAAGCGCCATCTAC	1.4
GATGATTGTTCTCCCAGCTGATGAATTGCCCGACTCGAGTAAACAAATTTTCCTAATCTTTCTGTTCAAGCGCCATCTAC	0.351
GATGATTGTTCTCCCAGCTGATGAATTTGGTAGTTCGAGTAAACAAATTTTCCTAATCTTTCTGTTCAAGCGCCATCTAC	2.3
GATGATTGTTCTCCCAGCTGATGAATTTCCATCGTCGAGTAAACAAATTTTCCTAATCTTTCTGTTCAAGCGCCATCTAC	0.336
GATGATTGTTCTCCCAGCTGATGAATTCCGTTGTTCGAGTAAACAAATTTTCCTAATCTTTCTGTTCAAGCGCCATCTAC	3.24
GATGATTGTTCTCCCAGCTGATGAATTAGCTGCGTCGAGTAAACAAATTTTCCTAATCTTTCTGTTCAAGCGCCATCTAC	0.696
GATGATTGTTCTCCCAGCTGATGAATTGGCTTACTCGAGTAAACAAATTTTCCTAATCTTTCTGTTCAAGCGCCATCTAC	2.85
GATGATTGTTCTCCCAGCTGATGAATTCATCTCTTCGAGTAAACAAATTTTCCTAATCTTTCTGTTCAAGCGCCATCTAC	0.419
GATGATTGTTCTCCCAGCTGATGAATTGGGCCGTTCGAGTAAACAAATTTTCCTAATCTTTCTGTTCAAGCGCCATCTAC	0.7
GATGATTGTTCTCCCAGCTGATGAATTGCTATTCTCGAGTAAACAAATTTTCCTAATCTTTCTGTTCAAGCGCCATCTAC	1.54
GATGATTGTTCTCCCAGCTGATGAATTAGTCTGCTCGAGTAAACAAATTTTCCTAATCTTTCTGTTCAAGCGCCATCTAC	0.66
